# Experimental data from the supplement of paper PMC8728848.
# Some of the results follow.
# B1: LecB PA7 (Pseudomonas aeruginosa) (protein)
# chain: MATQGVFTLPANTRFGVTAFANSSATQTVKVLVNNETAATFTGQSTNNAVIGSQVLNSGGGGKVQIQVSVNGRSSDLVSAQVILANELNVALVGSEDSTDNDYNDAVVVINWPLG
# Assays:
# Assay in all cases: glycan array binding signal (z-score within array); higher = stronger binding
# Settings in all cases: glycan notation: IUPAC condensed, linker removed
# [1] = target: Glc(b1-6)Glc
# Method in brief: (§1)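 The Consortium for Functional Glycomics database supplied 3228 glycan arrays, of which those lacking an available protein sequence were dropped. The binding signal, a within-array Z-score, was averaged across arrays of the same protein sequence and across linkers. Negative scores can be read as non-binding.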
# [2] = target: GlcA(b1-3)Gal
# Method in brief: as §1
# [3] = target: GlcA(b1-3)GlcNAc
# Method in brief: as §1
# [4] = target: GlcA(b1-6)Gal
# Method in brief: as §1
# [5] = target: GlcA3S(b1-3)Gal(b1-4)GlcNAc(b1-2)Man
# Method in brief: as §1
# [6] = target: GlcA3S(b1-3)Gal(b1-4)GlcNAc(b1-3)Gal(b1-4)Glc
# Method in brief: as §1
# [7] = target: GlcNAc(a1-3)Gal(b1-4)GlcNAc
# Method in brief: as §1
# [8] = target: GlcNAc(a1-4)Gal(b1-3)GlcNAc
# Method in brief: as §1
# [9] = target: GlcNAc(a1-4)Gal(b1-4)GalNAc
# Method in brief: as §1
# [10] = target: GlcNAc(a1-4)Gal(b1-4)GlcNAc
# Method in brief: as §1
# [11] = target: GlcNAc(a1-4)Gal(b1-4)GlcNAc(b1-3)Gal(b1-4)Glc
# Method in brief: as §1
# [12] = target: GlcNAc(a1-4)Gal(b1-4)GlcNAc(b1-3)Gal(b1-4)GlcNAc
# Method in brief: as §1
# [13] = target: GlcNAc(a1-4)Gal(b1-4)GlcNAc(b1-3)Gal(b1-4)GlcNAc(b1-3)Gal(b1-4)GlcNAc
# Method in brief: as §1
# [14] = target: GlcNAc(a1-4)Gal(b1-4)GlcNAc(b1-3)Gal(b1-4)[Fuc(a1-3)]GlcNAc(b1-3)Gal(b1-4)[Fuc(a1-3)]GlcNAc
# Method in brief: as §1
# [15] = target: GlcNAc(a1-6)Gal(b1-4)GlcNAc
# Method in brief: as §1
# [16] = target: GlcNAc(b1-2)Gal(b1-3)GalNAc
# Method in brief: as §1
# [17] = target: GlcNAc(b1-2)Man(a1-3)[GlcNAc(b1-2)Man(a1-6)]Man(b1-4)GlcNAc(b1-4)GlcNAc
# Method in brief: as §1
# [18] = target: GlcNAc(b1-2)Man(a1-3)[GlcNAc(b1-2)Man(a1-6)]Man(b1-4)GlcNAc(b1-4)[Fuc(a1-6)]GlcNAc
# Method in brief: as §1
# [19] = target: GlcNAc(b1-2)Man(a1-3)[GlcNAc(b1-4)][GlcNAc(b1-2)Man(a1-6)]Man(b1-4)GlcNAc(b1-4)GlcNAc
# Method in brief: as §1
# [20] = target: GlcNAc(b1-2)Man(a1-3)[GlcNAc(b1-4)][GlcNAc(b1-2)Man(a1-6)]Man(b1-4)GlcNAc(b1-4)[Fuc(a1-6)]GlcNAc
# Method in brief: as §1
# [21] = target: GlcNAc(b1-2)[GlcNAc(b1-4)]Man(a1-3)[GlcNAc(b1-2)Man(a1-6)]Man(b1-4)GlcNAc(b1-4)GlcNAc
# Method in brief: as §1
# [22] = target: GlcNAc(b1-2)[GlcNAc(b1-4)]Man(a1-3)[GlcNAc(b1-4)][GlcNAc(b1-2)Man(a1-6)]Man(b1-4)GlcNAc(b1-4)GlcNAc
# Method in brief: as §1
# [23] = target: GlcNAc(b1-2)[GlcNAc(b1-4)]Man(a1-3)[GlcNAc(b1-4)][GlcNAc(b1-2)[GlcNAc(b1-6)]Man(a1-6)]Man(b1-4)GlcNAc(b1-4)GlcNAc
# Method in brief: as §1
# [24] = target: GlcNAc(b1-2)[GlcNAc(b1-4)]Man(a1-3)[GlcNAc(b1-4)][GlcNAc(b1-2)[GlcNAc(b1-6)]Man(a1-6)]Man(b1-4)GlcNAc(b1-4)[Fuc(a1-6)]GlcNAc
# Method in brief: as §1
# [25] = target: GlcNAc(b1-2)[GlcNAc(b1-6)]Man(a1-6)[GlcNAc(b1-2)Man(a1-3)]Man(b1-4)GlcNAc(b1-4)GlcNAc
# Method in brief: as §1
# [26] = target: GlcNAc(b1-2)[GlcNAc(b1-6)]Man(a1-6)[GlcNAc(b1-2)Man(a1-3)]Man(b1-4)GlcNAc(b1-4)[Fuc(a1-6)]GlcNAc
# Method in brief: as §1
# [27] = target: GlcNAc(b1-2)[GlcNAc(b1-6)]Man(a1-6)[GlcNAc(b1-4)][GlcNAc(b1-2)Man(a1-3)]Man(b1-4)GlcNAc(b1-4)GlcNAc
# Method in brief: as §1
# [28] = target: GlcNAc(b1-3)Fuc
# Method in brief: as §1
# [29] = target: GlcNAc(b1-3)Gal
# Method in brief: as §1
# [30] = target: GlcNAc(b1-3)Gal(b1-3)GalNAc
# Method in brief: as §1
# [31] = target: GlcNAc(b1-3)Gal(b1-4)Glc
# Method in brief: as §1
# [32] = target: GlcNAc(b1-3)Gal(b1-4)GlcNAc
# Method in brief: as §1
# [33] = target: GlcNAc(b1-3)Gal(b1-4)GlcNAc(b1-2)Man(a1-3)[GlcNAc(b1-3)Gal(b1-4)GlcNAc(b1-2)Man(a1-6)]Man(b1-4)GlcNAc(b1-4)GlcNAc
# Method in brief: as §1
# [34] = target: GlcNAc(b1-3)Gal(b1-4)GlcNAc(b1-2)Man(a1-3)[GlcNAc(b1-3)Gal(b1-4)GlcNAc(b1-2)Man(a1-6)]Man(b1-4)GlcNAc(b1-4)[Fuc(a1-6)]GlcNAc
# Method in brief: as §1
# [35] = target: GlcNAc(b1-3)Gal(b1-4)GlcNAc(b1-2)[GlcNAc(b1-3)Gal(b1-4)GlcNAc(b1-6)]Man(a1-6)[GlcNAc(b1-3)Gal(b1-4)GlcNAc(b1-2)Man(a1-3)]Man(b1-4)GlcNAc(b1-4)GlcNAc
# Method in brief: as §1
# [36] = target: GlcNAc(b1-3)Gal(b1-4)GlcNAc(b1-3)Gal(b1-4)GlcNAc
# Method in brief: as §1
# [37] = target: GlcNAc(b1-3)Gal(b1-4)GlcNAc(b1-3)Gal(b1-4)GlcNAc(b1-2)Man(a1-3)[GlcNAc(b1-3)Gal(b1-4)GlcNAc(b1-3)Gal(b1-4)GlcNAc(b1-2)Man(a1-6)]Man(b1-4)GlcNAc(b1-4)GlcNAc
# Method in brief: as §1
# [38] = target: GlcNAc(b1-3)Gal(b1-4)GlcNAc(b1-3)Gal(b1-4)GlcNAc(b1-2)Man(a1-3)[GlcNAc(b1-3)Gal(b1-4)GlcNAc(b1-3)Gal(b1-4)GlcNAc(b1-2)Man(a1-6)]Man(b1-4)GlcNAc(b1-4)[Fuc(a1-6)]GlcNAc
# Method in brief: as §1
# [39] = target: GlcNAc(b1-3)Gal(b1-4)GlcNAc(b1-3)Gal(b1-4)GlcNAc(b1-2)[GlcNAc(b1-3)Gal(b1-4)GlcNAc(b1-3)Gal(b1-4)GlcNAc(b1-6)]Man(a1-6)[GlcNAc(b1-3)Gal(b1-4)GlcNAc(b1-3)Gal(b1-4)GlcNAc(b1-2)Man(a1-3)]Man(b1-4)GlcNAc(b1-4)[Fuc(a1-6)]GlcNAc
# Method in brief: as §1
# [40] = target: GlcNAc(b1-3)Gal(b1-4)GlcNAc(b1-3)Gal(b1-4)GlcNAc(b1-3)Gal(b1-4)GlcNAc(b1-2)Man(a1-3)[GlcNAc(b1-3)Gal(b1-4)GlcNAc(b1-3)Gal(b1-4)GlcNAc(b1-3)Gal(b1-4)GlcNAc(b1-2)Man(a1-6)]Man(b1-4)GlcNAc(b1-4)GlcNAc
# Method in brief: as §1
# [41] = target: GlcNAc(b1-3)Gal(b1-4)GlcNAc(b1-3)Gal(b1-4)GlcNAc(b1-3)Gal(b1-4)GlcNAc(b1-2)Man(a1-3)[GlcNAc(b1-3)Gal(b1-4)GlcNAc(b1-3)Gal(b1-4)GlcNAc(b1-3)Gal(b1-4)GlcNAc(b1-2)Man(a1-6)]Man(b1-4)GlcNAc(b1-4)[Fuc(a1-6)]GlcNAc
# Method in brief: as §1
# [42] = target: GlcNAc(b1-3)Gal(b1-4)GlcNAc(b1-3)Gal(b1-4)GlcNAc(b1-3)Gal(b1-4)GlcNAc(b1-2)[GlcNAc(b1-3)Gal(b1-4)GlcNAc(b1-3)Gal(b1-4)GlcNAc(b1-3)Gal(b1-4)GlcNAc(b1-6)]Man(a1-6)[GlcNAc(b1-3)Gal(b1-4)GlcNAc(b1-3)Gal(b1-4)GlcNAc(b1-3)Gal(b1-4)GlcNAc(b1-2)Man(a1-3)]Man(b1-4)GlcNAc(b1-4)[Fuc(a1-6)]GlcNAc
# Method in brief: as §1
# [43] = target: GlcNAc(b1-3)Gal(b1-4)GlcNAc(b1-3)Gal(b1-4)GlcNAc(b1-3)Gal(b1-4)GlcNAc(b1-3)Gal(b1-4)GlcNAc(b1-2)Man(a1-3)[GlcNAc(b1-3)Gal(b1-4)GlcNAc(b1-3)Gal(b1-4)GlcNAc(b1-3)Gal(b1-4)GlcNAc(b1-3)Gal(b1-4)GlcNAc(b1-2)Man(a1-6)]Man(b1-4)GlcNAc(b1-4)GlcNAc
# Method in brief: as §1
# [44] = target: GlcNAc(b1-3)Gal(b1-4)GlcNAc(b1-3)Gal(b1-4)GlcNAc(b1-3)Gal(b1-4)GlcNAc(b1-3)Gal(b1-4)GlcNAc(b1-2)Man(a1-3)[GlcNAc(b1-3)Gal(b1-4)GlcNAc(b1-3)Gal(b1-4)GlcNAc(b1-3)Gal(b1-4)GlcNAc(b1-3)Gal(b1-4)GlcNAc(b1-2)Man(a1-6)]Man(b1-4)GlcNAc(b1-4)[Fuc(a1-6)]GlcNAc
# Method in brief: as §1
# [45] = target: GlcNAc(b1-3)Gal(b1-4)GlcNAc(b1-3)Gal(b1-4)GlcNAc(b1-3)Gal(b1-4)GlcNAc(b1-3)Gal(b1-4)GlcNAc(b1-2)[GlcNAc(b1-3)Gal(b1-4)GlcNAc(b1-3)Gal(b1-4)GlcNAc(b1-3)Gal(b1-4)GlcNAc(b1-3)Gal(b1-4)GlcNAc(b1-6)]Man(a1-6)[GlcNAc(b1-3)Gal(b1-4)GlcNAc(b1-3)Gal(b1-4)GlcNAc(b1-3)Gal(b1-4)GlcNAc(b1-3)Gal(b1-4)GlcNAc(b1-2)Man(a1-3)]Man(b1-4)GlcNAc(b1-4)[Fuc(a1-6)]GlcNAc
# Method in brief: as §1
binder,measurement,setting,value
B1,glycan array binding signal (z-score),[1],-0.475
same,glycan array binding signal (z-score),[2],-0.499
same,glycan array binding signal (z-score),[3],-0.499
same,glycan array binding signal (z-score),[4],-0.481
same,glycan array binding signal (z-score),[5],-0.508
same,glycan array binding signal (z-score),[6],-0.504
same,glycan array binding signal (z-score),[7],-0.505
same,glycan array binding signal (z-score),[8],-0.514
same,glycan array binding signal (z-score),[9],-0.414
same,glycan array binding signal (z-score),[10],-0.509
same,glycan array binding signal (z-score),[11],-0.505
same,glycan array binding signal (z-score),[12],-0.483
same,glycan array binding signal (z-score),[13],-0.495
same,glycan array binding signal (z-score),[14],1.77
same,glycan array binding signal (z-score),[15],-0.502
same,glycan array binding signal (z-score),[16],-0.505
same,glycan array binding signal (z-score),[17],-0.477
same,glycan array binding signal (z-score),[18],-0.112
same,glycan array binding signal (z-score),[19],-0.496
same,glycan array binding signal (z-score),[20],0.118
same,glycan array binding signal (z-score),[21],-0.401
same,glycan array binding signal (z-score),[22],-0.511
same,glycan array binding signal (z-score),[23],-0.5
same,glycan array binding signal (z-score),[24],0.171
same,glycan array binding signal (z-score),[25],-0.394
same,glycan array binding signal (z-score),[26],0.727
same,glycan array binding signal (z-score),[27],-0.491
same,glycan array binding signal (z-score),[28],0.279
same,glycan array binding signal (z-score),[29],-0.502
same,glycan array binding signal (z-score),[30],-0.504
same,glycan array binding signal (z-score),[31],-0.505
same,glycan array binding signal (z-score),[32],-0.511
same,glycan array binding signal (z-score),[33],-0.495
same,glycan array binding signal (z-score),[34],0.561
same,glycan array binding signal (z-score),[35],-0.363
same,glycan array binding signal (z-score),[36],-0.503
same,glycan array binding signal (z-score),[37],-0.486
same,glycan array binding signal (z-score),[38],0.372
same,glycan array binding signal (z-score),[39],0.017
same,glycan array binding signal (z-score),[40],-0.467
same,glycan array binding signal (z-score),[41],0.235
same,glycan array binding signal (z-score),[42],-0.081
same,glycan array binding signal (z-score),[43],-0.473
same,glycan array binding signal (z-score),[44],0.402
same,glycan array binding signal (z-score),[45],0.048
